Some of the results follow. At the low end of the ranking the order means little. The protein was read in a cell extract, so binding may be indirect.

Consider 93 sequences from article PMC10726135.

In the assay the target is T1, HNF4alpha2 (COS-7 nuclear extract) (UniProt P41235).
T1 sequence: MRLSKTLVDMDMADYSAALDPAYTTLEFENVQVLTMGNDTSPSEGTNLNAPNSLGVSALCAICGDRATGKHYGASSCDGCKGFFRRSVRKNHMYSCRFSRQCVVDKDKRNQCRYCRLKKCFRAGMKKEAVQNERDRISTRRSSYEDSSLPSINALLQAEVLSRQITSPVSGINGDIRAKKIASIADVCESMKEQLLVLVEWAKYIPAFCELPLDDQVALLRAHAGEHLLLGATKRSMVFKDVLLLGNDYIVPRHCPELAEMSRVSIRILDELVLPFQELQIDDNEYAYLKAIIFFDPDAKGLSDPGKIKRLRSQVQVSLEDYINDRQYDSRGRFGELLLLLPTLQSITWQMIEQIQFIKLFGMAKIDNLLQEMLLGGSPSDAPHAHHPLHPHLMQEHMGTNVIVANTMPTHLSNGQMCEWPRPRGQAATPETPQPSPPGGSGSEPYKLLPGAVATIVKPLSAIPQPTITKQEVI
As to the kind of experiment: protein-binding microarray. Particulars: COS-7 nuclear extract on double-stranded Agilent 4x180k PBM; binding buffer, salt, pH and temperature not given; high values mean tight binding; double strand, one strand shown; sequences stand for … in …GCCTAGGGAGATTAGAGTATCGGTCGA
Regarding AAGGAGGCAGTAAGATAAGGAGGTAGAGTC, the binding signal (log2 normalized intensity) is -1.19. In the case of AGATTGCCACCTTGGTGAGAGATTAAACAT it was -0.677; in that of GGTACGTTCCAATATTCTGGCTTCTCGTGA, -1.13; in that of GGCTTGTGCTTAGCTATTTCGTTGAATGCT, -0.502.

Regarding CCCGGCTTTGGGCTTGAGCAGCTGGTGGAG, the binding signal (log2 normalized intensity) was found to be 0.349.

Consider GGGAAAAGATGGTCTCTCACCTGGCTTCCC, for which the binding signal (log2 normalized intensity) is -1.05. In the case of AGAAAAGAAAGTGAGGAATGCAACCACACC, the binding signal (log2 normalized intensity) is -0.894. The value for ATTGGTTTCCGCTAAGTCCAAAGGTAAAAA was 3.61; that for GACCCTCGGGCCTCCCTAGAGGCCTTCTCT was -1.09. Consider TATGTTGCTGATAAAGTCTATCTTAGCCAT, for which the binding signal (log2 normalized intensity) was 0.173. As to TTCACCGTATTATCTTATCTCCTCTGTAGG, the binding signal (log2 normalized intensity) was 1.61. CTGCCCAGACCTTATCTTGCATTTCTTCAG: the binding signal (log2 normalized intensity) is -0.308. In the case of TTAAGGACAAAGGCTTTGAGTCAACACACC it was -1.15; in that of ACCTCAAATGCAGGTGAGAGGCCTCTAAGC, -1.02; in that of AGCTCCAGGAGACGTAGAGATAAGGTCTTC, -0.875. On to TTTTCCCTGCTGCTGGCTGGCGGCCTTTGG, for which the binding signal (log2 normalized intensity) was 1.26.

Take CTCGAGGTGGACTTTCCCCCCTCACACTTT: the binding signal (log2 normalized intensity) worked out at 5.25. In the case of ATAAATAAGAAGCCTTATCAGTATCAATGA it was -0.294. For the sequence CCATTTCTCAGGTTGTGTTTGCAGTGAGTA, the binding signal (log2 normalized intensity) came to 2.09.

With GCCGGCCCGGTGCGCTGGCCTTGCTTTTCA, the binding signal (log2 normalized intensity) was -0.995. In the case of AGTTCTGTCCTTTGTCCTGTACCTGGGAAG, the binding signal (log2 normalized intensity) is 2.12. Consider TTCCAAACATGTTTCGAACGGTTGCAGCAT, for which the binding signal (log2 normalized intensity) is -1.05. In the case of CCAGCTGCAGAGGAAGGACATGGTAAAGAT, the binding signal (log2 normalized intensity) was -1.09. The value for AGAACAAACAATGGTTTGGGACAAAGTTTG was 0.489; that for CCGTCCTCCCCCACGACAGAATTGACTCTT was 3.53; that for CACTGGGGTTTAAAGTTTATAGGCTAGAAT was 0.463.

GAAGGCCAGGCAGCACAATTTGTGTCTCTC: the binding signal (log2 normalized intensity) was -1.04.

Consider CTAAGCAGCTGCAGTTTCTGCTATCTGCCT, for which the binding signal (log2 normalized intensity) is -1.15. On to AAGCTGTGGGATCCAACCAGAGGGAAGAGA, for which the binding signal (log2 normalized intensity) was -1.12. Regarding CATTCCTTAACATGGTTTGCAAGACCTCTG, the binding signal (log2 normalized intensity) amounted to 1.13. The value for CAGCTCAGCTAGTGAGATACGGCCTGGACT was 1.28; that for GTCGCGTATCTGACTTTATCATTGGACTCT was 4.88; that for TCTGTTGAGAACTGGAGCAAAGGTCACTCT was 5.13. For AGAAAACGTAAGCCCTCTATCAAAGGAGAA, the binding signal (log2 normalized intensity) was -0.944. As to CTAGTTCTTATCTCAGGTCCTGCCATTAAA, the binding signal (log2 normalized intensity) was found to be 0.632. Take TAATACAAGAGGCTTCTTATCAGCAGCTGG: the binding signal (log2 normalized intensity) was -1.04.

On to ATGGCAGGGGTTAACCTCTATTGACCTTCT, for which the binding signal (log2 normalized intensity) is 4.36. In the case of TCTCCTAAAGTGACTAGAGAGCAGGAGCCA it was -1.14; in that of TTATTCCGTACAAGGATTCATTTCCACCCT, 1.59. As to ACATTCCACGTTTGGGGAAGGATAAAATGA, the binding signal (log2 normalized intensity) was -0.484. For the sequence AATGTCTTTCCTGCAGAGGGACTGACTCCC, the binding signal (log2 normalized intensity) is 0.889. As to GCAAACAAGGGCAACTCTAATAGCACAGAT, the binding signal (log2 normalized intensity) is -1.06. As to TCTGTGCTCATTATTATCAGCAAGAAAATC, the binding signal (log2 normalized intensity) amounted to 0.234. As to TTGAACCTTTCTTTGTCTTTGCAATGTTGT, the binding signal (log2 normalized intensity) came to 2.41. As for AGGCCAGCAGTGCTTTTCCCAGGAATAAAA, the binding signal (log2 normalized intensity) was -1.13. Consider AGAACTTTGACCGTTTGATTATTTGTGAAG, for which the binding signal (log2 normalized intensity) was 2.44. With CGGCGCCCGCCCACTGGAGACTTCAAACGG, the binding signal (log2 normalized intensity) worked out at 0.955. Turning to GCGCCGGCCTCGGTCCTCGCTCGCCCGAGC, the binding signal (log2 normalized intensity) is -1.06. Regarding TTACCCCTTGAGTTTGAACTTTGACTTATT, the binding signal (log2 normalized intensity) was 6.34. Turning to GGGGCGCAGAAGGGATGGGAACCGACCTTT, the binding signal (log2 normalized intensity) amounted to 5.69. In the case of TGTCCCCCATCTCATCCTGGGTGCCTTACA it was 0.96; in that of TTAAAAGTTTCCCTTGATCAAAAACTGCCT, -1.07; in that of CTGCTTCCCTAGGGAGGTGATTGGTGAGTC, 0.108. In the case of CCCGCCCAGATGTCTGGCTAAGACCTTTAG it was 1.8; in that of AACTGCAGGAGTCGGGAGGTAGGGGTGGCG, -0.858. As to TGTTCTTGCCTGATAGCATCGTGGGTATTT, the binding signal (log2 normalized intensity) is 1.26. In the case of AATACTTGCCTAAGGTCAATGTCCTTTTTC it was 3.64; in that of TGGCTCCAAAGTCTATGTGTGCTTTCTTCA, 2.12; in that of GGCCCTGTGCTGCCCCCGATAGCACTATTA, 3.44. For TTGCTGGTCCCTTTCAAAACCTTTGGTTTT, the binding signal (log2 normalized intensity) was found to be 1.21. With GCCAGATATGCCGAGAATGCAGCCTTATCT, the binding signal (log2 normalized intensity) was -1.15.

For the sequence GCAGAGTTTTTTACTGCTCCTGCTGGCTAG, the binding signal (log2 normalized intensity) was -1.13. Regarding TAACTAACAAAAGCAGAGGAGTGGCCATGA, the binding signal (log2 normalized intensity) was -1.04. The value for GACTCCAGCTAAAGCCTGCTCGTTGGGGGT was -0.983. Turning to TCATTCAAAGTCCAAAAAGAATCAGTTACA, the binding signal (log2 normalized intensity) was determined as 1.64.

For GCATGCACTGTTTGCCATAGATCCCACCAT, the binding signal (log2 normalized intensity) was found to be 1.17.

For GCCTGTCAGGCCCAGAAACACTGAACCTTG, the binding signal (log2 normalized intensity) was 1.63. Turning to TTACCTGGGAAATTCCCTTTGCCTCATCTG, the binding signal (log2 normalized intensity) was -0.976. As for ATCACACAGGCATATTTGGTTAGCTGTGCA, the binding signal (log2 normalized intensity) is 0.0543. Consider AGGTCAGGTGAATCAACGATAAGGGATGAT, for which the binding signal (log2 normalized intensity) is -1.14. Take CACAGACCTGCCTCTCTCTCATGTCTGTAC: the binding signal (log2 normalized intensity) turned out to be 1.21.

Turning to AGTCCAAGAGATTTCTACAGATAGCAAGAT, the binding signal (log2 normalized intensity) is -1.09.

Take TCCTTCTCACCGGGTGGAGCCTCACTGCAG: the binding signal (log2 normalized intensity) was 0.143. ACAGTTAGGTAAGAGACAAAGGTTGCATTC: the binding signal (log2 normalized intensity) worked out at 1.79. The value for TCCTTTTGCTTAAAACGCCTGCAGAAACTT was 0.384; that for GGATGAGGCCGTTCTAGCCCTTTTTCCGGC was -0.835; that for TCAAAGCCAGCAACGGTGAGTCAAGCACTT was -1.11. Take GACAGCGGGTGTTTCTGGGAGTTGTGGTCC: the binding signal (log2 normalized intensity) was determined as 1.55. On to GAACATAAGGATGCGGACTCCTCCCTCAGC, for which the binding signal (log2 normalized intensity) is -0.967. CACCCAGAGCGTCCCACCTGAGGCCAAGCA: the binding signal (log2 normalized intensity) was -1.25. As to AGCCAGGTTAATTCACATCTCCAGTTCCAA, the binding signal (log2 normalized intensity) was -0.99. On to CTGCTGGGCGTGAACTGTGACTTTTATCTT, for which the binding signal (log2 normalized intensity) amounted to 1.61. In the case of TGAAGTCCAAAGGCCATCTGCTGGAGAATC, the binding signal (log2 normalized intensity) is 3.06. The value for AGTAGAGAGCAATCATGGGCCCACAGATGA was -0.846; that for CTTTCTTCTTGATCAAGAGGAAGATCTTTT was 1.56. As for AGCCTGTGGTTTCTCTTTGTATACACATTA, the binding signal (log2 normalized intensity) amounted to 1.44. In the case of GGTGTTAAAATAACGACCTTTGGGCTAAAA it was 3.81.

As to CACCTTGGGGGCTGCTGGGGGCACAGTCCA, the binding signal (log2 normalized intensity) is 2.36. Regarding ATAGCCAAGCCAACCAGGAGAATTTCAGTA, the binding signal (log2 normalized intensity) stood at 2.22. As for AGTGTTAAGGACAACCGGTAGCACAACATA, the binding signal (log2 normalized intensity) was -1.04.

As to ATCCTTCTTGACCAGGCAAGCTTGACCTTT, the binding signal (log2 normalized intensity) worked out at 7.07. Turning to TCACTGACATTCCAGCCACTAAGAAGCCCA, the binding signal (log2 normalized intensity) was -0.962.

As for AGAGGGGCCAGGAACGTCACACTGAAAGCT, the binding signal (log2 normalized intensity) is -1.18.
